# Source: the supplement of paper PMC8728848
# Some of the results follow.
# B1: Als3-N (Candida albicans) (protein)
# chain: KTITGVFNSFNSLTWSNAATYNYKGPGTPTWNAVLGWSLDGTSASPGDTFTLNMPCVFKFTTSQTSVDLTAHGVKYATCQFQAGEEFMTFSTLTCTVSNTLTPSIKALGTVTLPLAFNVGGTGSSVDLEDSKCFTAGTNTVTFNDGGKKISINVDFERSNVDPKGYLTDSRVIPSLNKVSTLFVAPQCANGYTSGTMGFANTYGDVQIDCSNIHVGITKGLNDWNYPVSSESFSYTKTCSSNGIFITYKNVPAGYRPFVDAYISATDVNSYTLSYANEYTCAGGYWQRAPFTLRWTGYRNSDAGSNGIVIVATTRTVTDSTTAVTTLPFDPNRDKTKTIEILKPIPTTTITTSYVGVTTSYLTKTAPIGETATVIVDIPYHTTTTVTSKWTGTITSTTTHTNPTDSIDTVIVQVP
# How the values were obtained:
# Assay in all cases: glycan array binding signal (z-score within array); higher = stronger binding
# Settings in all cases: glycan notation: IUPAC condensed, linker removed
# GalNAc3S(b1-4)GlcNAc3S = target: GalNAc3S(b1-4)GlcNAc3S
# In short: (§1)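 Glycan array data were curated from 3228 arrays in the Consortium for Functional Glycomics database and kept only where the protein sequence was available. Glycan names were converted to IUPAC-condensed notation, and columns mapping to the same glycan were averaged. The binding signal is a within-array Z-score, averaged across arrays of the same protein sequence at different concentrations or buffers and across linkers. Negative Z-scores can be read as non-binding.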
# [1] = target: GalNAc3S(b1-4)[Fuc(a1-3)]GlcNAc
# In short: as §1
# GalNAc4S6S(b1-4)GlcNAc = target: GalNAc4S6S(b1-4)GlcNAc
# In short: as §1
# GalNAc6S(b1-4)GlcNAc = target: GalNAc6S(b1-4)GlcNAc
# In short: as §1
# Glc(a1-4)Glc = target: Glc(a1-4)Glc
# In short: as §1
# [2] = target: Glc(a1-4)Glc(a1-4)Glc(a1-4)Glc
# In short: as §1
# Glc(a1-6)Glc(a1-6)Glc = target: Glc(a1-6)Glc(a1-6)Glc
# In short: as §1
# [3] = target: Glc(a1-6)Glc(a1-6)Glc(a1-6)Glc
# In short: as §1
# Glc(b1-4)Glc = target: Glc(b1-4)Glc
# In short: as §1
# Glc(b1-6)Glc = target: Glc(b1-6)Glc
# In short: as §1
# GlcA(b1-3)Gal = target: GlcA(b1-3)Gal
# In short: as §1
# GlcA(b1-3)GlcNAc = target: GlcA(b1-3)GlcNAc
# In short: as §1
# GlcA(b1-6)Gal = target: GlcA(b1-6)Gal
# In short: as §1
# [4] = target: GlcA3S(b1-3)Gal(b1-4)GlcNAc(b1-2)Man
# In short: as §1
# [5] = target: GlcA3S(b1-3)Gal(b1-4)GlcNAc(b1-3)Gal(b1-4)Glc
# In short: as §1
# [6] = target: GlcNAc(a1-3)Gal(b1-4)GlcNAc
# In short: as §1
# [7] = target: GlcNAc(a1-4)Gal(b1-3)GlcNAc
# In short: as §1
# [8] = target: GlcNAc(a1-4)Gal(b1-4)GalNAc
# In short: as §1
# [9] = target: GlcNAc(a1-4)Gal(b1-4)GlcNAc
# In short: as §1
# [10] = target: GlcNAc(a1-4)Gal(b1-4)GlcNAc(b1-3)Gal(b1-4)Glc
# In short: as §1
# [11] = target: GlcNAc(a1-4)Gal(b1-4)GlcNAc(b1-3)Gal(b1-4)GlcNAc
# In short: as §1
# [12] = target: GlcNAc(a1-4)Gal(b1-4)GlcNAc(b1-3)Gal(b1-4)GlcNAc(b1-3)Gal(b1-4)GlcNAc
# In short: as §1
# [13] = target: GlcNAc(a1-4)Gal(b1-4)GlcNAc(b1-3)Gal(b1-4)[Fuc(a1-3)]GlcNAc(b1-3)Gal(b1-4)[Fuc(a1-3)]GlcNAc
# In short: as §1
# [14] = target: GlcNAc(a1-6)Gal(b1-4)GlcNAc
# In short: as §1
# [15] = target: GlcNAc(b1-2)Gal(b1-3)GalNAc
# In short: as §1
# [16] = target: GlcNAc(b1-2)Man(a1-3)[GlcNAc(b1-2)Man(a1-6)]Man(b1-4)GlcNAc(b1-4)GlcNAc
# In short: as §1
# [17] = target: GlcNAc(b1-2)Man(a1-3)[GlcNAc(b1-2)Man(a1-6)]Man(b1-4)GlcNAc(b1-4)[Fuc(a1-6)]GlcNAc
# In short: as §1
# [18] = target: GlcNAc(b1-2)Man(a1-3)[GlcNAc(b1-4)][GlcNAc(b1-2)Man(a1-6)]Man(b1-4)GlcNAc(b1-4)GlcNAc
# In short: as §1
# [19] = target: GlcNAc(b1-2)Man(a1-3)[GlcNAc(b1-4)][GlcNAc(b1-2)Man(a1-6)]Man(b1-4)GlcNAc(b1-4)[Fuc(a1-6)]GlcNAc
# In short: as §1
# [20] = target: GlcNAc(b1-2)[GlcNAc(b1-4)]Man(a1-3)[GlcNAc(b1-2)Man(a1-6)]Man(b1-4)GlcNAc(b1-4)GlcNAc
# In short: as §1
# [21] = target: GlcNAc(b1-2)[GlcNAc(b1-4)]Man(a1-3)[GlcNAc(b1-4)][GlcNAc(b1-2)Man(a1-6)]Man(b1-4)GlcNAc(b1-4)GlcNAc
# In short: as §1
# [22] = target: GlcNAc(b1-2)[GlcNAc(b1-4)]Man(a1-3)[GlcNAc(b1-4)][GlcNAc(b1-2)[GlcNAc(b1-6)]Man(a1-6)]Man(b1-4)GlcNAc(b1-4)GlcNAc
# In short: as §1
# [23] = target: GlcNAc(b1-2)[GlcNAc(b1-4)]Man(a1-3)[GlcNAc(b1-4)][GlcNAc(b1-2)[GlcNAc(b1-6)]Man(a1-6)]Man(b1-4)GlcNAc(b1-4)[Fuc(a1-6)]GlcNAc
# In short: as §1
# [24] = target: GlcNAc(b1-2)[GlcNAc(b1-6)]Man(a1-6)[GlcNAc(b1-2)Man(a1-3)]Man(b1-4)GlcNAc(b1-4)GlcNAc
# In short: as §1
# [25] = target: GlcNAc(b1-2)[GlcNAc(b1-6)]Man(a1-6)[GlcNAc(b1-2)Man(a1-3)]Man(b1-4)GlcNAc(b1-4)[Fuc(a1-6)]GlcNAc
# In short: as §1
# [26] = target: GlcNAc(b1-2)[GlcNAc(b1-6)]Man(a1-6)[GlcNAc(b1-4)][GlcNAc(b1-2)Man(a1-3)]Man(b1-4)GlcNAc(b1-4)GlcNAc
# In short: as §1
# GlcNAc(b1-3)Fuc = target: GlcNAc(b1-3)Fuc
# In short: as §1
# GlcNAc(b1-3)Gal = target: GlcNAc(b1-3)Gal
# In short: as §1
binder,measurement,setting,value
B1,glycan array binding signal (z-score),GalNAc3S(b1-4)GlcNAc3S,0.535
same,glycan array binding signal (z-score),[1],-0.054
same,glycan array binding signal (z-score),GalNAc4S6S(b1-4)GlcNAc,0.111
same,glycan array binding signal (z-score),GalNAc6S(b1-4)GlcNAc,0.002
same,glycan array binding signal (z-score),Glc(a1-4)Glc,-0.188
same,glycan array binding signal (z-score),[2],0.082
same,glycan array binding signal (z-score),Glc(a1-6)Glc(a1-6)Glc,-0.244
same,glycan array binding signal (z-score),[3],0.126
same,glycan array binding signal (z-score),Glc(b1-4)Glc,-0.181
same,glycan array binding signal (z-score),Glc(b1-6)Glc,-0.125
same,glycan array binding signal (z-score),GlcA(b1-3)Gal,-0.356
same,glycan array binding signal (z-score),GlcA(b1-3)GlcNAc,-0.165
same,glycan array binding signal (z-score),GlcA(b1-6)Gal,-0.174
same,glycan array binding signal (z-score),[4],-0.101
same,glycan array binding signal (z-score),[5],0.051
same,glycan array binding signal (z-score),[6],-0.341
same,glycan array binding signal (z-score),[7],-0.207
same,glycan array binding signal (z-score),[8],-0.081
same,glycan array binding signal (z-score),[9],0.287
same,glycan array binding signal (z-score),[10],-0.033
same,glycan array binding signal (z-score),[11],-0.232
same,glycan array binding signal (z-score),[12],-0.263
same,glycan array binding signal (z-score),[13],1.31
same,glycan array binding signal (z-score),[14],-0.233
same,glycan array binding signal (z-score),[15],-0.234
same,glycan array binding signal (z-score),[16],-0.283
same,glycan array binding signal (z-score),[17],-0.12
same,glycan array binding signal (z-score),[18],-0.281
same,glycan array binding signal (z-score),[19],-0.229
same,glycan array binding signal (z-score),[20],-0.262
same,glycan array binding signal (z-score),[21],-0.205
same,glycan array binding signal (z-score),[22],-0.419
same,glycan array binding signal (z-score),[23],0.63
same,glycan array binding signal (z-score),[24],-0.248
same,glycan array binding signal (z-score),[25],-0.132
same,glycan array binding signal (z-score),[26],-0.17
same,glycan array binding signal (z-score),GlcNAc(b1-3)Fuc,0.444
same,glycan array binding signal (z-score),GlcNAc(b1-3)Gal,-0.306
